Results reported in PubChem BioAssay AID759 (NMMLSC, 2007).
The campaign covered roughly 190,000 compounds. About 270 (0.14%) were called active. This list was built around the results that the source calls inconclusive (neither active nor inactive); the mix of calls is not that of the screen.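 How the source made its calls: active means GTP binding activity at least 20% away from the 100% baseline, either lowered as inhibitor or raised as activator; inconclusive means flagged as likely green fluorescent, judged across all proteins in the well; inactive means the rest.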

Each compound was assayed against GTPase HRas (Homo sapiens) (UniProt P01112) (assay: HRas wt fluorescent GTP binding changes, either direction – biochemical, wildtype, bead-based flow cytometry, multiplex, primary screen (AID 759;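 further: 0% = unlabeled GTP competition control and 100% = no-compound control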)). Conditions: GST-Ras wt beads, Bodipy-FL-GTP binding, at 10 µM, actives lie on both sides.
UniProt P01112, sequence (P01112 whole entry, looked up): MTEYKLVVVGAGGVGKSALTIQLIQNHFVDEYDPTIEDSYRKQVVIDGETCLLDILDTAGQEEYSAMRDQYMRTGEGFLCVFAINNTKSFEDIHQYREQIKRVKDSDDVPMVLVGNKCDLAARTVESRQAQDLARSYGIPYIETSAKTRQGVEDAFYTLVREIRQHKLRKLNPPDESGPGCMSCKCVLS

GTP binding activity, inconclusive:
CCOC(=O)c1c(C)n(CC(COC(C)=O)OC(C)=O)c2ccc(OC(C)=O)cc12 (configuration not stated) 100%, O=C(NC(=S)N1CCN(c2ccc(F)cc2)CC1)C12CC3CC(CC(C3)C1)C2 103%, CC(=O)Nc1ccc(S(=O)(=O)N2CCN(C(C)CCc3ccccc3)CC2)cc1 (configuration not stated) 104%, CCc1ccc(-c2c(C)sc(NC(C)=O)c2C(N)=O)cc1 105%, Cc1cc(C)nc(Nc2nc(C)c3cc4c(cc3n2)OCO4)n1 110%, O=C(CSc1nnc(-c2ccco2)n1Cc1ccco1)NCc1cccs1 101%, O=C(O)CSc1nnc(COc2cccc3ccccc23)n1Cc1ccccc1 89%, CC(=O)N(Cc1cc(=O)[nH]c2ccccc12)c1ccc(C)cc1 103%, COc1cccc(-c2nn(C)c3sc(C(=O)NCc4ccco4)cc23)c1 92%, Cc1ccc(/C([O-])=C(/C(=S)Nc2ccc(SC(F)F)cc2)[n+]2ccccc2)cc1[N+](=O)[O-] 86%, Cc1onc(COc2ccccc2O)c1Br 105%, O=C(c1cccc([N+](=O)[O-])c1)N1CCN(c2ccccn2)CC1 112%, COc1ccc(C(=O)NC(C)(C)C)cc1S(=O)(=O)N1CCCC1 103%, CC1CCc2cc(F)ccc2N1C(=O)CSc1nnc2c(n1)[nH]c1ccc(F)cc12 (configuration not stated) 88%, Cc1cc(NC(=O)c2cc3n(n2)C(C(F)(F)F)CC(c2ccco2)N3)no1 (configuration not stated) 102%, Cc1ccc(-c2nc3ccccc3[nH]2)cc1NC(=O)c1ccc2c(c1)OCO2 104%, CCc1ccc(N2C(=O)C3ON(c4ccccc4)C(c4ccco4)C3C2=O)cc1 (configuration not stated) 107%, COc1ccc(/C=C/C(=O)NC(=S)Nc2ccc(S(=O)(=O)Nc3nccnc3OC)cc2)cc1 86%, O=C(O)CCN1C(=O)/C(=C/c2ccc(-c3nc4ccccc4s3)o2)SC1=S 70%, CC(C)(C)c1ccc(C(=O)NC(=S)Nn2cnnc2)cc1 96%, Cc1cc(C)nc(NC(=O)CSc2nccc(C)n2)n1 97%, COc1cc(NC(=O)c2ccc3c(c2)OCCO3)ccc1NC(=O)c1ccco1 96%, COc1ccc(/C=C/c2c([N+](=O)[O-])c(=O)n(C)c(=O)n2C)c(OC)c1 92%, CC(CC(=O)NC1CCSC1=O)c1ccccc1 (configuration not stated) 104%, CCOC(=O)N1CCN(c2c(N3CCc4ccccc43)c(=O)c2=O)CC1 103%, CC1=C(C(N)=O)C(c2cccnc2)n2nc(SCc3ccccc3Cl)nc2N1 (configuration not stated) 102%, N#C/C(=C\c1ccc(N2CCCCC2)o1)C(=O)Nc1cccc(Br)c1 112%, CC#CCC(CC#CC)c1nc2ccccc2c(=O)n1N 106%, O=C1CN=C(Nc2ccccc2Cl)N1Cc1ccc2c(c1)OCO2 102%, COc1ccc(NC(=O)CC2CC3CCC2C3)cn1 (configuration not stated) 95%, CCN(CC)CC1(O)CCN(C(=O)c2ccc(Cl)c(Cl)c2)CC1 103%, CCC(C(=O)N1CCc2cc(OC)c(OC)cc2C1)c1ccccc1 (configuration not stated) 104%, O=C(NNc1ccc([N+](=O)[O-])cc1)C1CC2CCCC(C1)C2=O (configuration not stated) 94%, Cc1nc2ncccn2c1-c1csc(Nc2ccc(O)cc2)n1 48%, COc1ccc(C(C(=O)NC2CCCC2)N(C(=O)c2snc(-c3ccc(F)cc3)c2N)c2ccc(F)cc2)cc1 (configuration not stated) 105%, O=C(O)C1C(C(=O)Nc2ccc(Cl)cc2)C2C=CC1C21CC1 (configuration not stated) 157%, COc1ccc(NS(=O)(=O)c2ccc(N/N=C/c3ccc(N4CCOCC4)cc3)c([N+](=O)[O-])c2)cc1 96%, Cc1ccc(C)c(NC(=S)NNC(=O)c2cc3c(s2)CCC(C)C3)c1 (configuration not stated) 149%, O=C(Cc1csc(N2CCOCC2)n1)N/N=C/c1cccc(O)c1 105%, O=c1[nH]cc(S(=O)(=O)c2ccccc2)[nH]1 95%, CC(=O)c1cc(OC(=O)N2CCOCC2)ccc1OC(=O)N1CCOCC1 93%, CCOC(=O)N1CCN(S(=O)(=O)c2cc([N+](=O)[O-])ccc2C)CC1 96%, c1ccc2c(c1)[nH]c1c(N3CCOCC3)ncnc12 95%, COCCOC(=O)C1=C(C)Nc2nc(C)nn2C1c1ccccc1 (configuration not stated) 103%, COc1cccc(C(=O)COc2cccc(NC(=O)c3ccco3)c2)c1 92%, Fc1cccc(NC(=S)NNc2c3ccccc3nc3ccccc23)c1 87%, O=C(O)CCc1ccc(-c2cccs2)o1 92%, CCOc1ccccc1OCCn1nnc2ccccc21 97%

GTP binding activity, active:
CCCOc1ccc(C(CC(=O)O)NC(=O)c2sc3ccccc3c2Cl)cc1 (configuration not stated) 77%, CC(C)c1nc2oc3c(=O)[nH]cnc3c2c2c1CCC2 74%, CC(=O)Nc1ccc(NC(=O)CCn2nnc3ccccc32)cc1 32%

GTP binding activity, inactive:
Cc1ccccc1OCCn1cc(C(=S)N2CCN(C)CC2)c2ccccc21 104%, CC(C)=CCCC(C)CN1CCC(N2CCC(C(=O)NC(C)C)CC2)CC1 (configuration not stated) 96%, CCCC(=O)NCCc1nc2cc([N+](=O)[O-])ccc2n1C 100%, COc1ccc(C(=O)c2c(O)cc(-c3ccc(OC)cc3)oc2=O)cc1 118%, CC1CCC(NC(=O)C2c3ccccc3C(=O)N2Cc2cccs2)CC1 (configuration not stated) 96%, Cc1onc(-c2c(F)cccc2Cl)c1C(=O)N1CCOC12CCCCC2 101%, Cc1cccc(NC(=S)N(CCN(C)C)Cc2cccs2)c1 101%, Cc1nn(Cc2ccc(Cl)cc2Cl)c(C)c1NC(=O)NC12CC3CC(CC(C3)C1)C2 98%, CC(O/N=C/c1ccc(OC(F)F)cc1)C(=O)Nc1cccc(S(=O)(=O)N2CCOCC2)c1 (configuration not stated) 98%, CCOC(=O)/C(=N\Nc1ccccc1Cl)N(C)C1CCCCC1 96%, COc1cccc(N2CCN(C(=O)CCCCCNc3nc(=S)[nH]c4ccccc34)CC2)c1 83%, CCOC(=O)C1(CCCc2ccccc2)CCN(Cc2cn(CC)nc2C)CC1 100%, O=C(CSc1nnnn1-c1cccc2c1CCCC2)N1CCCCC1 88%, NC(=O)NCCCC(=O)OCC(=O)c1ccc2ccccc2c1 101%, CCN(CC)CCN(C(=O)c1c(F)cccc1F)c1nc2cc(C)cc(C)c2s1 95%, C=CCOc1cccc(C(=O)N2CCCC(CNS(=O)(=O)c3cccs3)C2)c1 (configuration not stated) 91%, O=C(NCc1cccnc1)c1cccn2c(=O)c3sccc3nc12 87%, CC(=O)c1ccc(NC(=S)NNC(=O)c2ccncc2)cc1 100%, Oc1ccc(N=C/C=C/c2cccc(Br)c2)cc1-c1nc2ccccc2s1 99%, COc1ccc(CC(=O)NCCC(C)C)cc1S(=O)(=O)N1CCOCC1 94%, Fc1ccccc1-c1csc(=Nc2cccnc2)n1CCCn1ccnc1 100%, Cc1cc(C)cc(NC(=O)COC(=O)CN=C2NS(=O)(=O)c3ccccc32)c1 100%, CCN1CCN(c2ccc(NC(=O)c3cccc(F)c3)cc2Cl)CC1 97%, Cc1ccc(C)c(NC(=O)C2CCCN2C(=O)NC2CCCCC2)c1 (configuration not stated) 98%, Cc1c(CN2CCc3c([nH]c4ccccc34)C2CC(C)C)cnn1C (configuration not stated) 98%, Cc1ccc([N+](=O)[O-])cc1-c1ccc(/C=C(\C#N)c2[nH]nc(N)c2C#N)o1 80%, CCn1c(=O)n(CC(=O)Nc2ccc(F)cc2)c(=O)c2ccccc21 103%, Cc1n[nH]c(=O)nc1N/N=C/c1ccc(O)c([N+](=O)[O-])c1 98%, O=C1CCC/C(=N\NC(=O)NC2CCCCC2)C1 97%, COc1cccc(Nc2ncc(C(=O)O)c3ccccc23)c1 104%, O=C(Cn1nnc(-c2ccccc2)n1)N/N=C/c1ccco1 99%, Cc1ccc(OCc2ccc(Br)cc2)c([N+](=O)[O-])n1 96%, CCOC(=O)C1(C)NC(c2ccccc2F)C2C(=O)N(CC)C(=O)C21 (configuration not stated) 98%, Cc1cc(CNC(=O)c2ccc(C)c([N+](=O)[O-])c2)c2ccccc2n1 95%, COc1ccc(-n2c(=O)[nH]c3c(C(N)=O)nc(C4CCCCC4)nc32)cc1 98%, CN(C)C(=O)c1nc2ccc(Cl)cn2c1CNCc1ccccc1OC(F)(F)F 98%, C/C(=C1/SC(=S)N(CCC(=O)O)C1=O)c1ccc(O)cc1 88%, Cc1ccc(C(=O)Nc2ncc(Cc3ccc(SC(F)F)cc3)s2)cc1 97%, CCCCN1C(=O)C(NC(=O)C2CC2)(C(F)(F)F)C2=C1CC(C)(C)CC2=O (configuration not stated) 100%, COc1ccc(-n2cccc2/C=C2/NC(=O)N(c3cccc(Cl)c3)C2=O)cc1 100%, Cc1ccc(Br)cc1S(=O)(=O)N1CCN(c2ccccc2)CC1 100%
